# According to PMC4336329 (PLoS ONE, 2015):
# Out of some 310,000 compounds screened, about 2,200 (0.71%) showed an effect of 50% or more. Effects have a minus sign here. This is one part of the list.
# Molecular target: human ether-à-go-go-related gene (hERG) potassium channel (human, UniProt Q12809)
# Assay: primary screen, population patch clamp on CHO cells stably expressing hERG
# Chain of human ether-à-go-go-related gene (hERG) potassium channel (Q12809 whole entry, looked up): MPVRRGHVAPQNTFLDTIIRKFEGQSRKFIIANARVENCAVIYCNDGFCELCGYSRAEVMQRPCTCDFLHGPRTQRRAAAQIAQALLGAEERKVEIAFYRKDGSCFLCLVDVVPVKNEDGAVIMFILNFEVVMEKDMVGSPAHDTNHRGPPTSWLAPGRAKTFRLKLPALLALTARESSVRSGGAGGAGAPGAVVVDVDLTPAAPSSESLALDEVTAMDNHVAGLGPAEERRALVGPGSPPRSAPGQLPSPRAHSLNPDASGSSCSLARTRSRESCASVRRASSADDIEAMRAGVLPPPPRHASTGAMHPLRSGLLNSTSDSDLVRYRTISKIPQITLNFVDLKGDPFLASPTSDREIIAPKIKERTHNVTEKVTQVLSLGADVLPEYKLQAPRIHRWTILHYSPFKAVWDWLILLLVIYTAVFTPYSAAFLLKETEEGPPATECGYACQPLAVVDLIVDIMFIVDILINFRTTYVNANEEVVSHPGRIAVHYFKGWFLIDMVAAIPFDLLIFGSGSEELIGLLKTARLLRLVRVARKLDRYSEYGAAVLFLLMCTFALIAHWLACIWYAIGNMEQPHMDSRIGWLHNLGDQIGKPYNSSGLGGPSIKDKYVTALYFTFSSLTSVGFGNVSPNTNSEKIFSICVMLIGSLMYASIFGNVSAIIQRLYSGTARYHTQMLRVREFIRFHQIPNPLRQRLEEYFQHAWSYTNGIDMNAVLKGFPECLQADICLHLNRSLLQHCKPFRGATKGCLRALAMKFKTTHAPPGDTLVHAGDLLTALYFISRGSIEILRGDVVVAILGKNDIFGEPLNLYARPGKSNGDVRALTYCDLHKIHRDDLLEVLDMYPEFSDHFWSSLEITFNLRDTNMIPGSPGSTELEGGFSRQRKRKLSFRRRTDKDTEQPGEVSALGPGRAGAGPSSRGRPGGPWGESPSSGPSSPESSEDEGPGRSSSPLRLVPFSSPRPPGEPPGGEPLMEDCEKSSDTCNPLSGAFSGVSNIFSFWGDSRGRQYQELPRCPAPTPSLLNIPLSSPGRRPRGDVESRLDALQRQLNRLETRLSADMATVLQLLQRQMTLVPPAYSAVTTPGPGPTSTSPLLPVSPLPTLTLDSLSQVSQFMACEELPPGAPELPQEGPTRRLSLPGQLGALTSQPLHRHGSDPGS
row,SMILES,"hERG current change (%, negative = inhibition) at 1uM"
1,COc1ccc(CCNC(=O)C2CCCN(S(=O)(=O)c3ccc(F)cc3)C2)cc1OC (stereo not shown),9.16%
2,O=C1CCC(C(=O)Nc2ccc(Cl)cc2)N1 (stereo not shown),17.8%
3,CC(=O)N/C(=C\c1ccccc1)C(=O)OCC(=O)NC(=O)c1ccccc1,6.41%
4,O=C(Nc1ccc2c(c1)C(=O)NC2=O)c1ccc(Cl)s1,12.3%
5,CNC(=O)c1sc(-c2cccnc2)nc1C,-24.6%
6,Cn1c2c(c(=O)c3ccccc31)CCCC2,10.6%
7,COCCCNC(=O)CN(c1ccc(OC)cc1)S(=O)(=O)c1ccc(NC(C)=O)cc1,13.1%
8,CCCN1CCC(NC(=O)Cc2ccc(C)cc2)CC1,7.64%
9,CCCCc1cc(C(=O)Cc2ccccn2)c(O)cc1O,13.1%
10,CCOc1ccc(Nc2nc(Cc3nnc(SCC(N)=O)o3)cs2)cc1,3.2%
11,O=S1(=O)CC(O)C(NCCO)C1 (stereo not shown),6.22%
12,CCc1cccc(C)c1NC(=O)C1CC(=O)N(C2CCCC2)C1 (stereo not shown),-0.876%
13,COc1cccc(C2C(C(=O)OC(C)C)=C(C)N=c3s/c(=C\c4ccc(C(=O)O)cc4)c(=O)n32)c1 (stereo not shown),2.45%
14,Cc1ccc2cc3c(NC(=O)C(C)C)nn(C)c3nc2c1,-0.639%
15,COc1cc([N+](=O)[O-])ccc1NC(=O)NCc1ccccn1,11.8%
16,CCN1C(=O)C2(SC(NC(C)=O)=NN2C(C)=O)c2cc(C)ccc21 (stereo not shown),-0.937%
17,COc1ccc(C(=O)/C(C#N)=N/Nc2ccc([N+](=O)[O-])cc2)cc1,12.6%
18,N#Cc1ccc(N2CCN(C(=O)c3cccs3)CC2)c(F)c1,-21.1%
19,CCCc1cc(=O)oc2cc(C)cc(OC(C)C(=O)NCc3cccnc3)c12 (stereo not shown),-5.76%
20,COc1cc(C2/C(=C(\O)c3ccc4c(c3)CC(C)O4)C(=O)C(=O)N2CCCn2ccnc2)cc(OC)c1OC (stereo not shown),21.3%
21,Cc1ccc(C)c(OC(=O)c2cccnc2Cl)c1C,12.1%
22,NC(N)=Nc1ccc2[nH]c3c(c2c1)C[C@@]1(O)[C@H]2Cc4ccc(O)c5c4[C@@]1(CCN2CC1CC1)[C@H]3O5.O=C(O)C(F)(F)F,7.49%

row,SMILES,"hERG current change (%, negative = inhibition) at 1uM"
1,CC(C)c1ccccc1NC(=O)CSc1n[nH]c(=O)n1C1CC1,9.45%
2,COc1ccc(CNC(=O)C(C)n2nc(C)c3c(C)n(-c4ccc(C)cc4)nc3c2=O)cc1 (stereo not shown),7.94%
3,O=C(N[C@@H](Cc1ccccc1)C(=O)N1CCC2(CC1)NCCc1[nH]cnc12)c1cccc(F)c1,14.5%
4,O=C(Cn1nnc(-c2ccccc2Cl)n1)N1CCN(S(=O)(=O)c2ccc(Cl)cc2)CC1,-0.486%
5,COc1ccc(CNS(=O)(=O)c2ccc(-c3ccc(=O)[nH]n3)s2)cc1OC,-2.35%
6,COc1ccc(NC(=O)c2ccc(C)cc2)cc1,12.2%
7,Cc1noc(C)c1CSCC(=O)Oc1ccc(N(C)S(=O)(=O)c2ccc(Cl)cc2)cc1,13%
8,CCN(CC(=O)Nc1cc(Cl)ccc1C)C(=O)C1COc2ccccc2O1 (stereo not shown),13.4%
9,CCN1CCCC1CNC(=O)C1c2ccccc2C(=O)N(CCOC)C1c1ccc(F)cc1 (stereo not shown),15.7%
10,CCN(CC(=O)Nc1ccc2c(c1)OCCO2)Cc1cc(=O)n2ccsc2n1,-0.0569%
11,CCC(CC)C(=O)Nc1cccc(C(=O)Nc2ccc3c(c2)OCO3)c1,15%
12,COc1ccc(CCNC(=O)COC(=O)C2CC2C)cc1 (stereo not shown),9.29%
13,C=C(C)c1nc(N)nc(N)n1,14.3%
14,CC(C)N(CCCNC(=O)c1ccc(CS(=O)(=O)c2c(Cl)cccc2Cl)o1)Cc1ccccc1,-34.2%
15,COc1cccc(CNC(=O)N[C@@H](C)C(=O)O)c1,10.7%
16,C=CCC1(Nc2ccccc2)CC(C)N(C)CC1C.O=C(O)C(=O)O (stereo not shown),2.05%
17,CC1CCN(CCNC(=O)C2CCCN(S(=O)(=O)c3cccc4nsnc34)C2)CC1 (stereo not shown),7.41%
18,CCOC(=O)N1CCN(S(=O)(=O)c2ccc(C(=O)Nc3ccc4c(c3)C(=O)NC4=O)cc2)CC1,-0.488%
19,CCOc1ccc(N(CC(=O)N/N=C(\C)c2cccc(NC(C)=O)c2)S(=O)(=O)c2ccccc2)cc1,15.4%
20,CCC(C)(CC(=O)O)CC(=O)Nc1cc(C(F)(F)F)cc(C(F)(F)F)c1 (stereo not shown),11.6%
21,CCn1cc(C(=O)NCCCOC)c(=O)c2cc(S(=O)(=O)N3CCC(C)CC3)ccc21,10%
22,O=C(N/N=C/c1ccc(O)cc1)c1ccc(COc2cc(Cl)ccc2Cl)o1,15.4%

row,SMILES,"hERG current change (%, negative = inhibition) at 1uM"
1,CC(C)C(OC(=O)CCCC(=O)Nc1nccs1)C(=O)NC1CCCCC1 (stereo not shown),14.2%
2,COC(=O)C[C@H]1c2cc(C(F)(F)F)ccc2S(=O)(=O)N1Cc1ccccc1OC,9.81%
3,COc1ccccc1NC(=O)CCC(=O)Nc1ccccc1OC,5.77%
4,COc1ccc(CCNC(=O)CC(C)(C)CC2=NS(=O)(=O)c3ccccc3N2)cc1OC,11.6%
5,O=C(O)CN1C(=O)/C(=C\c2ccccc2OCc2ccc(F)cc2)SC1=S,7.03%
6,COC(=O)c1cccn(CC(=O)c2ccc(Cl)cc2Cl)c1=O,7.98%
7,COc1cccc(/C(C)=N/N=C(\C)c2cccc(OC)c2)c1,18.5%
8,COc1cccc(CC(=O)OCC(=O)N2CCN(c3ccc(F)cc3)CC2)c1,-21.6%
9,O=C(O)CC1c2ccccc2C=Cc2ccccc21,8.55%
10,COc1ccc(CN2CCN(C3CCC3)CC2CCO)c(C)c1C (stereo not shown),11.8%
11,NC(=O)COC(=O)[C@H](Cc1c[nH]c2ccccc12)NC(=O)c1ccc(F)cc1,16.3%
12,COc1ccccc1NC(=O)Nc1nc(CC(=O)NCc2ccccn2)cs1,4.12%
13,CC1(C)CC(NC(=S)Nc2ccc([N+](=O)[O-])cc2)CC(C)(C)N1,8.78%
14,COc1ccc(NC(=O)CN(C)C(=O)c2oc3c(ccc4ccccc43)c2C)cc1,0.811%
15,CC(C)(C)S(=O)(=O)c1cnc(-c2ccccn2)nc1N,9.74%
16,CCC(=O)c1ccc(OCC(=O)OCC(=O)N(C)CC(=O)Nc2ccc(F)cc2)cc1,6.46%
17,CC(=O)OCC1OC(Sc2cccc3cccnc23)C(OC(C)=O)C(OC(C)=O)C1OC(C)=O (stereo not shown),-2.95%
18,O=[N+]([O-])c1ccc(N2CCNCC2)cc1N1CCCCC1,8.99%
19,COc1cc(NS(=O)(=O)c2ccc(Br)cc2)c(OC)cc1NC(=O)c1ccco1,-2.36%
20,N#C[C@]1(S(=O)(=O)c2ccccc2)C[C@@H]2ON=C(c3cccc(Br)c3)[C@@H]2C1,11.3%
21,CN1CCc2c(sc3nc(SCC(=O)NCc4ccco4)n(-c4ccccc4)c(=O)c23)C1,14.7%
22,CC1CCC2(CC1)NC(=O)N(CC(=O)Nc1nc(-c3ccc(F)cc3)cs1)C2=O (stereo not shown),17.9%

row,SMILES,"hERG current change (%, negative = inhibition) at 1uM"
1,Cc1csc(NC(=O)c2c(-c3c(Cl)cccc3Cl)noc2C)n1,7.98%
2,O=C(NCCc1cnn(-c2ccccc2)c1)c1cc(COc2c(F)cccc2F)on1,2.71%
3,O=C(CSc1nnc2c(n1)[nH]c1ccc(S(=O)(=O)N3CCOCC3)cc12)Nc1ccccc1Cl,13%
4,Cc1ccc(S(=O)(=O)NC(=O)CSc2nc3ccccc3s2)cc1,2.07%
5,CCOc1ccc(-c2nc(C)c(C(C)=O)n2O)cc1,-0.9%
6,O=C(NCCC1=CCCCC1)C(=O)NCC(c1ccco1)N1CCN(c2ccccc2F)CC1 (stereo not shown),2.06%
7,COc1ccccc1CNC(=O)c1cc(S(=O)(=O)N2CCCC2)cn1C,2.2%
8,Cc1cc2cc(CCNC(=O)C(C)C)c(=O)[nH]c2cc1C,8.91%
9,CC(NC(=O)C(=O)NCCc1c[nH]c2ccccc12)c1ccccc1 (stereo not shown),12.1%
10,Cc1ccc(C(=O)COC(=O)c2n[nH]c(=O)c3ccccc23)cc1,9.61%
11,Cc1cc(C)nc(NC(=S)Nc2ccc(F)cc2F)c1,10.3%
12,C=CCn1c(CCC(=O)O)ccc1-c1ccc(OC)cc1,18.3%
13,Cc1cccc(OC(=O)Cn2c(C(F)(F)F)nc3ccccc32)c1,12.1%
14,CC/C(=N\NC(=O)Nc1nonc1N)c1ccc(OC)c(OC)c1,13.8%
15,Cc1c(C(=O)N/N=C/C(C)C)[nH]c2ccc([N+](=O)[O-])cc12,0.619%
16,CCN(Cc1ccccc1)C(=O)c1cc2cc(OC)c(OC)cc2[nH]1,13.3%
17,O=C(O)CSc1c2c(nc3cc(C(=O)N4CCCC4)ccc13)CCCC2,2.12%
18,Cc1ccc(S(=O)(=O)N2[C@@H](c3ccccc3F)C(C(=O)O)=CC[C@H]2c2cccc(C)c2)cc1,9.22%
19,CCN(CC)S(=O)(=O)c1cc(NC(=O)COC(=O)c2sc3ccccc3c2Cl)ccc1C,9.06%
